Measurements reported in PubChem BioAssay AID1240 (Sanford-Burnham Center for Chemical Genomics, 2008).
The campaign covered roughly 50,000 compounds. About 800 (1.6%) showed an effect of 50% or more. Some of the results follow.

biological target: Bcl-2-like protein 10 (Homo sapiens) (UniProt Q9HD36); experiment: Phenotype converters, Bcl-B/TR3 peptide binding displacement, primary biochemical FP (AID 1240); settings: GST-Bcl-B / FITC-TR3 peptide fluorescence polarization; stronger effect = higher value; compound at 3.75 mg/L;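 also: 0% = Bcl-B with tracer peptide and DMSO and 100% = tracer peptide lacking Bcl-B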
Sequence of UniProt Q9HD36 (Q9HD36 whole entry, looked up): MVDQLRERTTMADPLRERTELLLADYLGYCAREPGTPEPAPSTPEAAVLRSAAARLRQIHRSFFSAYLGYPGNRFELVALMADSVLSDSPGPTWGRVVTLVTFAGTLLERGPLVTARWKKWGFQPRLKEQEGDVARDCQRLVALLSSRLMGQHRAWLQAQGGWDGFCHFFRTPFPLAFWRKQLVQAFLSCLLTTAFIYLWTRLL

SMILES	displacement [%]
O=c1oc2ccccc2cc1-c1csc(N/N=C/c2ccco2)n1	8.6
Cc1ccc(C(=O)/C=C/c2ccccc2[N+](=O)[O-])cc1	12.6
COc1ccc(-c2nn(-c3ccccc3)cc2/C=c2\sc3nc(-c4ccc(C)cc4)nn3c2=O)cc1	8.3
Cc1cccc(C)c1OCCCSC#N	8.2
CS(=O)(=O)N(CC(O)Cn1c2ccccc2c2ccccc21)c1ccccc1 (stereo unspecified)	19
O=C(Nc1ccc(S(=O)c2ccc(NC(=O)c3cccs3)cc2)cc1)c1cccs1	3.9
O=C(Nc1ccccc1CO)c1ccc(I)cc1	2.2
CN(C)C(=O)C(=O)c1c[nH]c2ccccc12	11.1
Cc1occc1C(=O)NNC(=O)Nc1ccc(Cl)c(Cl)c1	0.1
CC(C)COC1CS(=O)(=O)CC1OCC(C)C (stereo unspecified)	-2.6
COc1cc(C=Nc2cc(Cl)cc(Cl)c2)ccc1O	-10.4
O=C1c2ccccc2NC(c2ccc(Cl)cc2)N1Cc1ccccc1 (stereo unspecified)	9.2
O=C(Nc1c[nH]c(=O)[nH]c1=O)c1cccc(N2C(=O)c3ccc([N+](=O)[O-])cc3C2=O)c1	-10.7
O=C(O)c1ccc(S(=O)(=O)NCC2CCCO2)cc1 (stereo unspecified)	10.6
CCCc1cc2c(-c3ccccc3)cc(=O)oc2cc1OC	20.8
COc1ccc(N(CC(=O)Nc2ccc(C)cc2)S(C)(=O)=O)c(OC)c1	-11
CCOC(=O)/C=C(\C)Nc1nc(S(=O)(=O)c2ccc(C)cc2)c(Cl)s1	-12
O=C1S/C(=C\c2cccs2)C(=O)N1c1ccccc1	12.7
CC1(C)CC(=O)C=C(NCCN2CCN(C(=O)Nc3ccc(Cl)c(Cl)c3)CC2)C1	-7.6

SMILES	displacement [%]
C=CCc1cccc(/C=N/NC(=O)CSc2nnc(-c3ccccc3)n2-c2ccccc2)c1O	20.1
Cc1c(C#N)c(=O)ncn1Cc1ccccc1	-14.8
O=C(O)c1cccc(N/C(=N\S(=O)(=O)c2ccccc2)c2ccccc2)c1	-2.4
O=C1c2cc(S(=O)(=O)n3cnc4ccccc43)ccc2-c2ccc(S(=O)(=O)n3cnc4ccccc43)cc21	13.8
O=C1CCCC2=C1C(c1cccc(Br)c1)C1=C(CCCC1=O)O2	9.2
CCOC(=O)c1sc(NC(=O)c2cc(OC)cc(OC)c2)c(C(N)=O)c1C	10.7
Cc1c(OC(C)C)ccc2c1oc(=O)c1ccccc12	17.5
CSc1ccc(S(=O)(=O)N(CC(=O)Nc2ccc(C(C)=O)cc2)c2ccc(C)cc2)cc1	13.1
C#CCSc1nc2sc3c(c2c(=O)n1CC=C)CCC3	-1.3
O=C(CC1OC(=O)c2ccccc21)c1ccccc1 (stereo unspecified)	1
CCOc1ccccc1NC(=O)CSCc1ccccc1	-1.2
COc1ccc(C(=O)NCC(C)C)cc1OC	-63.9
CCC(=O)Nc1nc(C)c(-c2csc(Nc3ccc(C(=O)O)cc3)n2)s1	2.7
CCOC(=O)c1c(-c2ccccc2)oc2ccc(OC(=O)c3ccco3)cc12	99.8
CCn1c(O)c(N=NC(=O)c2ccccc2[N+](=O)[O-])c2ccccc21	4.2
COc1ccc(/C=N\Nc2cc(C)c3ccccc3n2)cc1	2.4
N#CC(C#N)=C1C(=O)N(Cc2ccc3c(c2)OCO3)c2ccccc21	45.9
O=C(Nc1ccc([N+](=O)[O-])cc1O)C1CC1(c1ccccc1)c1ccccc1 (stereo unspecified)	-5.1
CCOc1cc2c(c([N+](=O)[O-])c1)NC(c1ccccc1F)C1CC=CC21 (stereo unspecified)	-10.8

SMILES	displacement [%]
O=C1NN(c2ccc(Cl)c(Cl)c2)C(=O)/C1=C/c1ccccc1O	28.7
CCCOc1cccc(C(=O)Nc2ccc(I)cc2Cl)c1	10.7
Cc1c(-c2cccc(Cl)c2)nc2ccccc2c1C(=O)O	1
Cc1ccnc(NC(=S)NC(=O)c2ccc(Cl)cc2)c1	-2.4
Cc1nc2cc(-c3ccccc3)[nH]n2c(=O)c1Cl	15.7
O=C(/C=C/c1ccc(-c2cccc(Cl)c2)o1)c1cccs1	-65
Cc1ccc(C(O)(C(=O)Nc2ccccn2)c2ccc(C)cc2)cc1	-0.3
CCN(CC)c1ccc(-n2c(O)c(C3=c4ccccc4=NC3=O)sc2=S)cc1	3.3
COc1ccc(N2C(=O)C3C4C=CC(C4=C(C)C)C3C2=O)cc1 (stereo unspecified)	120
O=[N+]([O-])c1ccc(Cl)cc1NCCOc1ccc(F)cc1	9.1
COc1ccc(CCN2C(=O)CSC2c2ccc(F)cc2)cc1OC (stereo unspecified)	-13.2
CCCCc1cccc(C(=O)CSc2nc(C)c(C)c(C)c2C#N)c1	0.6
C=CCn1c(O)c(N=NC(=O)c2ccc3ccccc3n2)c2ccccc21	-1.6
O=[N+]([O-])c1ccc2nc(Sc3ccccn3)sc2c1	-5.6
COc1ccc(CCNC(=O)c2ccc(C)c([N+](=O)[O-])c2)cc1	-10.8
Nc1cc(Cl)c(S(=O)(=O)NC2CCCCC2)cc1S(=O)(=O)NC1CCCCC1	-2.5
O=C(Nc1nc2ccc([N+](=O)[O-])cc2s1)c1cc(Cl)ccc1Cl	2.2
CCOC(=O)C1=C(O)/C(=C/c2ccc(C)cc2)SC1=Nc1cccc(Cl)c1	-4.5
